The inconclusive results got no clear call from the source; some entries with a clear call stand among them for comparison. For part of these data: Potencies of inconclusive entries are left out as doubtful fits. Calls of active or inactive are those of the source. Unless noted, calls come from the whole dose curve; as a rule, active = well fitted curve in the direction sought with a large enough effect in the repeat runs; inconclusive = weak or mixed curves; inactive = no such curve, though single readings can be large; an effect the other way counts as inactive or inconclusive.
Assays:
[1] = qHTS assay for identifying genotoxic compounds that show differential cytotoxicity against isogenic chicken DT40 cell lines with known DNA damage response pathways - wild type cell line (AID 743012); conditions: DT40 wild type chicken cells viability, CellTiter-Glo, 40 h; activity change, negative = cytotoxicity: at 68.4 µM (top of the series) unless noted; note: nearly all actives have a fitted effect of over 60% in size; note: potency is the fitted concentration of half-maximal effect
Summary of the method: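 Cells (DT40 wild type, 300/well) are treated with DMSO-dissolved compounds after a ~0.5 h pre-incubation and kept 40 h at 37 C/5% CO2. Viability is then measured by CellTiter-Glo luminescence following 30 min at room temperature.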

[2] = qHTS assay for identifying genotoxic compounds that show differential cytotoxicity against isogenic chicken DT40 cell lines with known DNA damage response pathways - Rad54/Ku70 mutant cell line (AID 743015); conditions: DT40 Rad54/Ku70 mutant viability, CellTiter-Glo, 40 h; activity change, negative = cytotoxicity: at 66.8 µM (top of the series); note: nearly all actives have a fitted effect of over 60% in size; note: potency is the fitted concentration of half-maximal effect
[3] = qHTS assay to identify small molecule antagonists of the thyroid receptor (TR) signaling pathway (AID 743065); note: potency is the fitted concentration of half-maximal effect; nearly all actives have a fitted effect of over 55% in size
Summary of the method: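 GH3.TRE-Luc rat pituitary cells (two TREs driving luciferase) were dosed with compound, then stimulated with 1 nM T3 (final) for 23.5 h at 37 C. ONE-Glo luminescence was the read-out, with CellTiter-Fluor fluorescence as the cytotoxicity counter-screen.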

[4] = molecular target: Estrogen receptor (Homo sapiens) (UniProt P03372); assay: qHTS assay to identify small molecule antagonists of the estrogen receptor alpha (ER-alpha) signaling pathway (AID 743069; active = well fitted curve in the direction sought with a large enough effect in the signal ratio in the repeat runs, not every such curve was filed as active; inconclusive = weak or mixed curves, or effect the other way; inactive = no such curve, though single readings can be large or run the other way; the % refers to the signal ratio; note: % is set by controls: 0 for no effect and ±100 for the full control effect); conditions: HEK293 ER-alpha-UAS-bla, beta-lactamase ratio, antagonist mode; activity, negative = inhibition: at 69.4 µM (top of the series) unless noted
Summary of the method: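 HEK293 ER-alpha-UAS-bla GripTite cells, held overnight in 2% charcoal-stripped FBS, 5,000 cells/well, preincubated 4 h, then compound plus 17beta-estradiol for 18 h at 37C. Beta-lactamase read by LiveBLAzer B/G FRET substrate, 2 h at room temperature.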

[5] = molecular target: Estrogen receptor (Homo sapiens) (UniProt P03372); assay: qHTS assay to identify small molecule agonists of the estrogen receptor alpha (ER-alpha) signaling pathway using the BG1 cell line (AID 743079); conditions: BG1Luc4E2 cells, ERE-luciferase agonist, 22 h; activation: at 70.3 µM (top of the series) unless noted; note: nearly all actives have a fitted effect of over 20% in size; note: potency is the fitted concentration of half-maximal effect
[6] = molecular target: Aromatase (Homo sapiens) (UniProt P11511); assay: qHTS assay to identify aromatase inhibitors (AID 743083); conditions: MCF-7 aro ERE, testosterone-driven ERE luciferase, 24 h; activity, negative = inhibition: at 70.3 µM (top of the series); note: nearly all actives have a fitted effect of over 55% in size; note: potency is the fitted concentration of half-maximal effect
[7] = qHTS assay to identify small molecule antagonists of the androgen receptor (AR) signaling pathway - cell viability counter screen (AID 743033; note: nearly all actives have a fitted effect of over 45% in size; note: potency is the fitted concentration of half-maximal effect); conditions: AR-bla HEK293 viability, CellTiter-Glo luminescence, 16 h; activity change, negative = cytotoxicity: at 58.5 µM (top of the series) unless noted
[8] = molecular target: Androgen receptor (Homo sapiens) (UniProt P10275); assay: qHTS assay to identify small molecule antagonists of the androgen receptor (AR) signaling pathway (AID 743035; active = well fitted inhibition curve with a large enough effect in the signal ratio in the repeat runs, not every such curve was filed as active; inconclusive = weak or mixed curves, or effect the other way; inactive = no such curve, though single readings can be large or run the other way; the % refers to the signal ratio; note: % is set by controls: 0 for no effect and ±100 for the full control effect); conditions: HEK293 AR-UAS-bla, R1881-stimulated, beta-lactamase FRET, 16 h; activity change, negative = inhibition: at 58.5 µM (top of the series) unless noted
Summary of the method: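 Antagonism is scored as loss of R1881-driven beta-lactamase reporter expression in HEK293 cells carrying the reporter under a UAS element, after 16 h co-treatment at 37C and a 2 h room-temperature FRET substrate read.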

[9] = qHTS assay to identify small molecule antagonists of the androgen receptor (AR) signaling pathway using the MDA cell line - cell viability counter screen (AID 743041; note: nearly all actives have a fitted effect of over 45% in size; note: potency is the fitted concentration of half-maximal effect); conditions: MDA-kb2 viability, CellTiter-Fluor, 16 h, cells co-treated with R1881 androgen agonist; viability change, negative = cytotoxic: at 70.3 µM (top of the series) unless noted
Summary of the method: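 MDA-kb2 AR-luc cells (MMTV-luciferase, AR/GR responsive) treated with compounds plus R1881 agonist for 16 h at 37C. CellTiter-Fluor added at 15.5 h; fluorescence read after 30 min in the same wells.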

[10] = molecular target: Estrogen receptor (Homo sapiens) (UniProt P03372); assay: qHTS assay to identify small molecule agonists of the estrogen receptor alpha (ER-alpha) signaling pathway (AID 743075; calls by dose curve; note: % is set by controls: 0 for no effect and ±100 for the full control effect)
[11] = qHTS assay to identify small molecule antagonists of the thyroid receptor (TR) signaling pathway - cell viability counter screen (AID 743064); conditions: GH3.TRE-Luc viability, CellTiter-Fluor, 24 h; activity change, negative = cytotoxic: at 70.3 µM (top of the series) unless noted; note: nearly all actives have a fitted effect of over 50% in size; note: potency is the fitted concentration of half-maximal effect
Summary of the method: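 GH3.TRE-Luc rat pituitary cells carrying a TRE-luciferase reporter were treated with compound plus 1 nM T3 (final) for 23.5 h at 37 °C. Viability was then read in the same wells by CellTiter-Fluor fluorescence after a further 30 min.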

[12] = test system: thyroid hormone receptor (rat, GH3 cells); assay: qHTS assay to identify small molecule agonists of the thyroid receptor (TR) signaling pathway (AID 743066; calls by dose curve; note: % is set by controls: 0 for no effect and ±100 for the full control effect); conditions: GH3.TRE-Luc cells, TR agonist luciferase, 24 h; activation: at 83.9 µM (top of the series) unless noted
[13] = molecular target: Androgen receptor (Homo sapiens) (UniProt P10275); assay: qHTS assay to identify small molecule agonists of the androgen receptor (AR) signaling pathway (AID 743036; active = well fitted activation curve with a large enough effect in the signal ratio in the repeat runs, with a control signal flat, not every such curve was filed as active; inconclusive = weak or mixed curves, or effect the other way; inactive = no such curve, though single readings can be large or run the other way; the % refers to the signal ratio; note: potency is the fitted concentration of half-maximal effect); conditions: HEK293 AR-UAS-bla GripTite, beta-lactamase FRET ratio, 16 h; activation: at 62.4 µM (top of the series) unless noted
Summary of the method: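 HEK293 cells stably carrying a UAS-driven beta-lactamase reporter (GeneBLAzer AR-UAS-bla-GripTite) were plated at 2,000 cells/well, rested 4 h at 37C, then exposed to compounds in DMSO for 16 h. LiveBLAzer B/G FRET substrate was added for 2 h at room temperature; fluorescence read.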

[14] = qHTS assay to identify small molecule antagonists of the estrogen receptor alpha (ER-alpha) signaling pathway - cell viability counter screen (AID 743074; calls by dose curve;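 note: HEK293 cells carrying ER-alpha-UAS-bla reporter stimulated with 17beta-estradiol; % is set by controls: 0 for no effect and ±100 for the full control effect; nearly all actives have a fitted effect of over 45% in size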)
[15] = molecular target: Androgen receptor (Homo sapiens) (UniProt P10275); assay: qHTS assay to identify small molecule antagonists of the androgen receptor (AR) signaling pathway using the MDA cell line (AID 743042; note: potency is the fitted concentration of half-maximal effect; nearly all actives have a fitted effect of over 55% in size)
Summary of the method: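 MDA-kb2 breast carcinoma cells carrying MMTV-luciferase (AR/GR responsive) were co-treated with compounds and the agonist R1881 for 16 h at 37C. Inhibition read as ONE-Glo luminescence; CellTiter-Fluor fluorescence measured in parallel for cytotoxicity.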
Tags give direction and shape of the fitted curve or compound fluorescence and quenching.

Sequence of UniProt P03372 (P03372 whole entry, looked up): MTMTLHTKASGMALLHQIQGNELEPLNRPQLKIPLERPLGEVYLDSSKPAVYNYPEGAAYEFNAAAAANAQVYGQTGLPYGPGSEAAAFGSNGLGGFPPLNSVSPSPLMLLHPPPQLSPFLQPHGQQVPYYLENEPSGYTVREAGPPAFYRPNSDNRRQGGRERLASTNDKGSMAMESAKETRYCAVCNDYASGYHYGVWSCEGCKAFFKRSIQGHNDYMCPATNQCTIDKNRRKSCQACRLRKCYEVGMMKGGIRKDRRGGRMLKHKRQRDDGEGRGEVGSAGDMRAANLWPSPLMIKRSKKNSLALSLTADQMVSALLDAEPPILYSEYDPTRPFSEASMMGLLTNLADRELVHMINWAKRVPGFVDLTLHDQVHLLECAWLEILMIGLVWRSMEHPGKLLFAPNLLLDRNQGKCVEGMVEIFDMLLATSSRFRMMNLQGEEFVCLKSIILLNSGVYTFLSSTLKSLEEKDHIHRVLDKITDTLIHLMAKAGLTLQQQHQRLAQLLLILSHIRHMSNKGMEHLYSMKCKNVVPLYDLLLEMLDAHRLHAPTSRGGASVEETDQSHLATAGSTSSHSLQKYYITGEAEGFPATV
Sequence of UniProt P11511 (P11511 whole entry, looked up): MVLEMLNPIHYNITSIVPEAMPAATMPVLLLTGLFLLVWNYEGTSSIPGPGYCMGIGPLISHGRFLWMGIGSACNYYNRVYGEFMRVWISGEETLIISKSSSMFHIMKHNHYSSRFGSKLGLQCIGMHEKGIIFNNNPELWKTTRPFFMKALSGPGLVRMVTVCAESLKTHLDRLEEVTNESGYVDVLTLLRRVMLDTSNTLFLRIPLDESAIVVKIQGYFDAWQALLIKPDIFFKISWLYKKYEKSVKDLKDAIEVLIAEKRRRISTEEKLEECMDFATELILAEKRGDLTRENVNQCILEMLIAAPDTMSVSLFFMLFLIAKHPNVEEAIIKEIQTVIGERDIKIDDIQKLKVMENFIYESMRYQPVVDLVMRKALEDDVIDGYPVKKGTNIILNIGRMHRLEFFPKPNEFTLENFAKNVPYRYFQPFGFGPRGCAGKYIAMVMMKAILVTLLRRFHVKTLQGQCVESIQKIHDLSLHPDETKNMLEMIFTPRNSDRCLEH
Sequence of UniProt P10275 (P10275 whole entry, looked up): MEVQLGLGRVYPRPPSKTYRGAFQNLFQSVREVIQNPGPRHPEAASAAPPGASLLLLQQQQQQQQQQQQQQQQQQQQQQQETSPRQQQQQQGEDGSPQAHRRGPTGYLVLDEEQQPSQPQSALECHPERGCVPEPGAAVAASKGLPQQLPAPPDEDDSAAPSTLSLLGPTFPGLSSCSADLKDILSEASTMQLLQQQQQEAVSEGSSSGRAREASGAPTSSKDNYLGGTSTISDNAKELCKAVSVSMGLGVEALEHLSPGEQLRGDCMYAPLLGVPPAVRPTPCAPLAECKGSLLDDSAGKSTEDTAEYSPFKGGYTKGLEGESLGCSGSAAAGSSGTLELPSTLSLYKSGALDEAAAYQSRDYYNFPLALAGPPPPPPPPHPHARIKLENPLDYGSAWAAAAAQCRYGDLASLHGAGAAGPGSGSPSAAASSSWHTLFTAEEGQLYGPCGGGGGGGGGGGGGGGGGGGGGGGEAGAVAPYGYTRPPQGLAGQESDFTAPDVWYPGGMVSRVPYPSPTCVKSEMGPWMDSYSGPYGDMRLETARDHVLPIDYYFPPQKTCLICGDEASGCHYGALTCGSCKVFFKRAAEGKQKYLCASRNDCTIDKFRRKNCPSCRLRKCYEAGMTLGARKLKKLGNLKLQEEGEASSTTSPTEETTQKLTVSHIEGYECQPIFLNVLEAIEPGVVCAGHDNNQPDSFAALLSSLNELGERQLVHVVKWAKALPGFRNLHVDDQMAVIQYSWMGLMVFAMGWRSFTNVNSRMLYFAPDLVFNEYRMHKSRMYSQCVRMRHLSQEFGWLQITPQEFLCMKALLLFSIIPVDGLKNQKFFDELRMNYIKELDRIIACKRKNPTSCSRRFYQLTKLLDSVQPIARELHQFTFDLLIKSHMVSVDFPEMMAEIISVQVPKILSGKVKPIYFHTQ

CC(C)Nc1cccnc1N1CCN(C(=O)c2cc3cc(NS(C)(=O)=O)ccc3[nH]2)CC1
Potency [1]: inconclusive [cytotoxic, single point] | Potency [2]: inconclusive [cytotoxic, single point] | Potency [3]: inconclusive [inhibitor, partial curve] | Potency [4]: inactive | Potency [5]: inactive

C=CC(=O)OCCOC(=O)CCC(=O)O
Potency [1]: inconclusive [cytotoxic, partial curve, poor fit] | Potency [2]: inactive | Potency [6]: inconclusive [inhibitor, single point]

C=CCOC(=O)/C=C\C(=O)OCC=C
Potency [1]: inactive | Potency [2]: inactive | Potency [7]: inconclusive [cytotoxic, single point] | Potency [8]: inactive | Potency [9]: inconclusive [rising, partial curve, poor fit] | Potency [4]: inactive | Potency [10]: inactive

CN(Cc1ccc(C(C)(C)C)cc1)Cc1cccc2ccccc12
Potency [1]: inconclusive [cytotoxic, partial curve, poor fit] | Potency [2]: inconclusive [cytotoxic] | Potency [11]: inconclusive [cytotoxic, single point] | Potency [3]: inconclusive [inhibitor, single point] | activation [12]: inconclusive: -9.66% [phenotype inactive] | Potency [6]: inactive

Nc1ccc(Cl)cc1[N+](=O)[O-]
Potency [1]: inactive | activity change, negative = inhibition [8]: inconclusive: -15.7% | Potency [13]: inactive | activity change, negative = cytotoxic [11]: inconclusive: 37% | Potency [5]: inconclusive [activator, single point]

CC(=O)CC(=O)Nc1ccccc1
Potency [1]: inconclusive [rising, single point] | Potency [11]: inconclusive [rising, single point]

COCCCOCCCOC
Potency [1]: inactive | Potency [7]: inactive | Potency [14]: inactive

Cc1cc(N)c2cc(NC(=O)Nc3ccc4nc(C)cc(N)c4c3)ccc2n1
Potency [1]: inconclusive [cytotoxic, single point] | activity change, negative = inhibition [8]: inconclusive: 23.3% | Potency [15]: inconclusive [inhibitor, single point] | Potency [11]: active: 29.8 µM

C1CCN(CN2CCCCC2)CC1
Potency [1]: inactive | Potency [7]: inactive | Potency [4]: inactive

CCCCCCOC(=O)c1ccccc1
Potency [1]: active: 68.6 µM | Potency [7]: inconclusive [cytotoxic, partial curve, poor fit] | Potency [9]: inconclusive [cytotoxic, partial curve] | Potency [14]: inactive

O=C1OC(OC(=O)c2cccnc2Nc2cccc(C(F)(F)F)c2)c2ccccc21 (stereo not drawn)
Potency [1]: inconclusive [cytotoxic, full curve, poor fit] | Potency [13]: inconclusive [rising, full curve, poor fit] | Potency [11]: inconclusive [cytotoxic, single point] | Potency [3]: active: 29.8 µM

CCC(C)c1ccccc1O (stereo not drawn)
Potency [1]: inconclusive [single point] | Potency [9]: inactive

Source: PubChem BioAssay (Tox21)
